Experimental data published in PMC4336329 (PLoS ONE, 2015).
Hit rate of the full screen: of about 310,000 compounds, about 14,000 (4.5%) showed an effect of 50% or more. The effect is printed as a negative number. This is one part of the list.

Biological target: human ether-à-go-go-related gene (hERG) potassium channel (human, UniProt Q12809)
Test: primary screen, population patch clamp on CHO cells stably expressing hERG
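Also: peak tail current of the secondary pulse compared with the same well before compound.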

Sequence of human ether-à-go-go-related gene (hERG) potassium channel (Q12809 whole entry, looked up): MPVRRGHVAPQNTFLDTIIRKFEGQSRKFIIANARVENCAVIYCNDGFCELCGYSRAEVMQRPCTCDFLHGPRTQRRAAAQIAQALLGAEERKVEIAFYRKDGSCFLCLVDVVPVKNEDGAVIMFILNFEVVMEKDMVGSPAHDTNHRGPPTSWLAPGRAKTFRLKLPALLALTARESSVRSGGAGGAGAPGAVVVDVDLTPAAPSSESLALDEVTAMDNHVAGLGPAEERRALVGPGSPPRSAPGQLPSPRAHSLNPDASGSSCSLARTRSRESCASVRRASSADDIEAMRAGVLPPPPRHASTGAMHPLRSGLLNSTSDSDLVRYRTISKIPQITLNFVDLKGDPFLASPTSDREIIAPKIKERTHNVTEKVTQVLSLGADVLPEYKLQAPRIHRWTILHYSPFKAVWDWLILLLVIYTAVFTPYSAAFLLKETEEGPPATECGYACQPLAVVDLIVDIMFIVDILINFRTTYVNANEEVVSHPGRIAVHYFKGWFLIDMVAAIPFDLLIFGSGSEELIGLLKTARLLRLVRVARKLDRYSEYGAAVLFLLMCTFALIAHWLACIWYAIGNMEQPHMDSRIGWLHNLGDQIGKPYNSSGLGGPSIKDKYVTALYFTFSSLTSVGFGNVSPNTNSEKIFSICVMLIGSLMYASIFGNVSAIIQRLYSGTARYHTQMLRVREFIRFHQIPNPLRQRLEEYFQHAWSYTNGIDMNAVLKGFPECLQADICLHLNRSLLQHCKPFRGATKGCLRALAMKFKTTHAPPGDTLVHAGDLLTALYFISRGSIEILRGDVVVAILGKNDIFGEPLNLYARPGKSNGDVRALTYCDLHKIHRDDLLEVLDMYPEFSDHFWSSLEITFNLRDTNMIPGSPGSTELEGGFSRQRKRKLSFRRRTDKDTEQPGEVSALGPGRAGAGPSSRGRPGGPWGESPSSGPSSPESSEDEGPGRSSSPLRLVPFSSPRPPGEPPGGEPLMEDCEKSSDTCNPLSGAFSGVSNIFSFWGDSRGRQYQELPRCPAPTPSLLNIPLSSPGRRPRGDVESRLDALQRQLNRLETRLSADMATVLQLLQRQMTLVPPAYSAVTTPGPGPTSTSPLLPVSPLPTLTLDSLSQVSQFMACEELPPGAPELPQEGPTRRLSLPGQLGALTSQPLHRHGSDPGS

In order of falling “hERG current change (%, negative = inhibition) at 10uM” value:
1. O=C(Nc1ccncc1)c1ccc(C(=O)Nc2ccncc2)cc1  41.2%
2. COc1ccccc1C(=O)NNC(=O)C(=O)Nc1cccc(Cl)c1C  26.9%
3. Cc1ccc(-c2csc(C3=C(O)CN(NC(=O)c4ccc([N+](=O)[O-])cc4)C3=N)n2)cc1  26.3%
4. CC/C(=N\NC(=O)C1CCCC1)c1ccc(Br)cc1  26%
5. Cc1ccc2nc(C)cc(OCC(=O)O)c2c1.Cl  24.6%
6. C=CCCCCCCCC(=O)OC  24.6%
7. CCc1nnc(NC(=O)CSc2nnc(-c3ccccc3O)o2)s1  24.3%
8. CCOC(=O)NC(O)C(=O)c1cccs1 (stereo not drawn)  24.3%
9. Cc1n[nH]c(=S)n1/N=C/c1c(O)ccc2ccccc12  24.1%
10. O=C(NC1CC1)C1CCCN1C(=O)NC1CCCCC1 (stereo not drawn)  21.2%
11. O=S(=O)(NC1CCCCC1N1CCC(O)CC1)c1ccc(Cl)cc1 (stereo not drawn)  20.7%
12. C=CCOc1ccc(/C=C2\C(=N)N3N=C(S(=O)(=O)CC)SC3=NC2=O)cc1OC  20.4%
13. C=C1C(=O)O[C@@H]2C[C@@H](C)[C@H]3C=CC(=O)[C@]3(O)C[C@@H]12  19.3%
14. CCN1CCN(CCCNC(=O)CNC(=O)c2nn(-c3ccc(OC)cc3OC)c(=O)c3ccccc23)CC1  19.2%
15. O=C(CSc1nnc(NC(=O)c2ccc(F)cc2)s1)NCc1ccco1  19%
16. CSc1nnc(CNS(=O)(=O)c2ccc(Cl)cc2)n1C  17.4%
17. CCCOc1ccc(C(=O)NNC(=S)NC(=O)c2cccs2)cc1  16.7%
18. CN(C)S(=O)(=O)c1ccc(C(=O)OCC(=O)Nc2ccc(OC(F)F)cc2)cc1  16.4%
19. N#Cc1cn(-c2cccc(C(F)(F)F)c2)c(=O)[nH]c1=O  15%
20. CNC(=S)Nc1cc(OC)c(NC(=O)c2ccco2)cc1OC  14.9%
21. CC(C)Cc1c2c([nH]c(=S)c1C#N)CCCC2  14.1%
22. O=C(NC1=NCCS1)C1CCN(S(=O)(=O)c2ccc(Cl)cc2)CC1  14%
23. C/C(=N\OCC(=O)O)c1ccc(Cl)cc1  13.5%
24. Cc1cc(NS(=O)(=O)c2ccc(NC(=S)NC(=O)c3cccnc3)cc2)no1  13.3%
25. CCOC(=O)c1cnc2c(C#N)cnn2c1N  12.5%
26. CCOC(=O)N1CCN(Cc2ccc(F)cc2F)CC1.O=C(O)C(=O)O  11.1%
27. CCC(=O)N1CCc2cc(Br)cc(S(=O)(=O)NCCN3CCCC3)c21  11.1%
28. Nc1c(-c2cccs2)cnn1-c1nc(-c2ccc(F)cc2)cs1  10.8%
29. COC(=O)c1ccc(Oc2nc(C(N)=O)cc(-c3ccccc3)n2)cc1  10.7%
30. COc1ccc(NC(=O)c2ccc(COc3ccccc3Br)o2)c(OC)c1  10.5%
31. CCCCNS(=O)(=O)c1ccc(NC(=O)c2cccs2)cc1  9.72%
32. O=c1nc(Nc2cccc(Cl)c2)oc2cc(Cl)oc(=O)c12  9.57%
33. CC1=C(C(=O)OCC(C)C)C(c2ccc(F)cc2)NC(=O)N1 (stereo not drawn)  9.31%
34. COc1ccc(C(=O)NC2CCN(C(=S)NCCc3ccccc3)CC2)cc1  8.78%
35. COC(=O)C1=C(C)NC(=O)C1(Nc1ccc(Cl)cn1)C(F)(F)F (stereo not drawn)  8.7%
36. COc1ccc(CN(C(=O)CSc2nnc(-c3ccccc3C)o2)c2ccc(F)cc2)cc1  8.45%
37. CCOC(=O)c1sc(NC(=O)CCN2C(=O)c3ccccc3C2=O)c(C(=O)OCC)c1C  8.29%
38. CCOc1ccccc1OCCCOc1ccc(C)cc1Br  7.97%
39. CC(=O)Nc1cc2cc(NS(=O)(=O)c3ccc(Cl)cc3)ccc2oc1=O  7.62%
40. CN(C(=O)c1ccc2c(c1)OCO2)C1CCS(=O)(=O)C1 (stereo not drawn)  7.11%
41. CC(C)COc1ccc(C2(C#N)CC[N+](C)(C)CC2)cc1.[Br-]  5.72%
42. O=C(CSc1nnc(CNC(=O)c2cccc(C(F)(F)F)c2)o1)NC1CCCC1  5.51%
43. Fc1ccccc1CCNCc1ccccc1  5.42%
44. COc1ccccc1N(Cc1cc(=O)[nH]c2ccccc12)C(=O)c1cccc([N+](=O)[O-])c1  5.22%
45. O=C(CN(C(=O)c1csnn1)c1ccccc1C(F)(F)F)NC1CCCCC1  5.2%
46. Cc1ccc(CSC2=NCCN2S(=O)(=O)c2ccc(F)cc2)cc1  4.62%
47. Cc1ccc(S(=O)(=O)/N=C/c2cc(Br)ccc2O)cc1  4.53%
48. Cc1noc(C)c1S(=O)(=O)N1CCCC(C(=O)NCc2ccccn2)C1 (stereo not drawn)  3.78%
49. CC(=O)N(C1=C(Cl)C(=O)c2ccccc2C1=O)c1ccc(C(=O)O)cc1  3.2%
50. CCC1(C)Cc2c(sc3[nH]c(=S)n(Cc4ccccc4)c(=O)c23)CO1 (stereo not drawn)  3.04%
51. C=CCNC(=O)C1CCN(S(=O)(=O)CC)CC1  0.813%
52. Cc1cccc(C)c1OCC(=O)Nc1ccc(S(=O)(=O)Nc2ccccn2)cc1  0.175%
53. Clc1ccc(-c2nnsc2SCc2ccccc2)cc1  -0.542%
54. N#C/C(=C\c1cn(Cc2cccc(F)c2)c2ccccc12)C(=O)NCc1ccco1  -1.04%
55. CCc1sc(NC(=O)C(C)C)nc1-c1ccccc1  -1.18%
56. O=C(NC(=S)N1CCCc2ccccc21)c1ccco1  -1.2%
57. COc1ccc(Cn2c(SCc3ccccc3C)nc3cc(OC)c(OC)cc3c2=N)cc1  -1.25%
58. O=C1CCCC(O)=C1C=Nc1cccc(C(F)(F)F)c1  -3.27%
59. COc1ccc(C(=O)C2CCCN(C(=O)c3ccc(F)cc3)C2)cc1OC (stereo not drawn)  -3.95%
60. COc1ccc(C(=O)Nc2ncccc2C)cc1S(=O)(=O)N1CCOCC1  -4.05%
61. COc1ccc(NC(=O)/C=C/c2ccccc2)cn1  -4.92%
62. CS(=O)(=O)N(Cc1ccccc1Cl)c1ccc(C(=O)NCc2ccccn2)cc1  -5.8%
63. Cc1csc(NC(=O)CSc2nnc(-c3ccc(Cl)cc3)n2N)n1  -6.15%
64. Cc1ccc(NC2=NC(=S)N(CC#N)C23CCCCC3)cc1  -6.19%
65. COC(=O)CNC(=O)c1cc(-c2ccncc2)nc2ccccc12  -7.19%
66. CCC1CCCCN1C(=O)CSc1nnc(-c2ccc(Cl)cc2)o1 (stereo not drawn)  -7.62%
67. Cc1sc2ncn(CC(=O)NCCCN3CCC(C)CC3)c(=O)c2c1S(=O)(=O)N1CCC(C)CC1  -8.34%
68. Cc1ccc(N(C(=O)c2csnn2)C(C(=O)NC2CCCC2)c2cccnc2)c(C)c1 (stereo not drawn)  -8.47%
69. CCC/C(=N\NC(=O)CNC(=O)/C=C/c1ccco1)c1ccccc1  -9.16%
70. CCOc1ccc(NC(=O)C2CC(=O)N(c3cc(C)cc(C)c3)C2)cc1 (stereo not drawn)  -10.1%
71. CCOC(=O)c1nn(-c2cccc(C)c2)c2nc(-c3ccccc3)c(C#N)c(=O)n12  -10.4%
72. CC(=O)Nc1ccc(N2C(=O)CSC2c2c(F)cccc2Cl)cc1 (stereo not drawn)  -12.4%
73. N#Cc1ccc(OCCOCCNC2CCCC2)cc1  -17.6%
74. COC(=O)CSc1nc(N)c2c3c(sc2n1)CCCC3  -18.3%
75. Cc1ccc(NC(=O)Cn2cccc2)cc1  -19.2%
76. CC1C(=O)Nc2ccccc2N1C(=O)c1cccc(C(F)(F)F)c1 (stereo not drawn)  -20.2%
77. O=C(CCNS(=O)(=O)c1cccs1)N1CCc2ccccc2C1  -21%
78. Cc1cccc(OCCCC(=O)Nc2ccc(S(=O)(=O)N3CCCC3)cc2)c1  -21.3%
79. N#Cc1ccccc1OCC(=O)NCc1ccccc1CN1CCCC1  -22.4%
80. COCCNC(=O)c1c(N)n(-c2ccccc2)c2nc3ccccc3nc12  -27.2%
81. Cc1cccc(-n2ncc3c(NCc4ccco4)ncnc32)c1  -27.5%
82. c1ccc(SCCCCNC2CCCC2)cc1  -30.4%
83. COc1ccc(-n2ncc3c2CC(C)(C)CC3NC(=O)CCc2c(C)nn(C)c2C)cc1 (stereo not drawn)  -30.4%
84. O=C(COc1ccc(S(=O)(=O)N2CCCCC2)cc1)N1CCN(Cc2ccccc2)CC1  -32.5%
85. Cc1cc(C)n2nc(SCCOc3ccccc3)nc2n1  -38.7%
86. CN(C)c1ccc(NC(=O)CSc2nnc(-c3cccs3)n2Cc2ccco2)cc1  -39.4%
87. COc1ccc(C(=O)/C=C/c2cn(CC(O)CN3CCN(C)CC3)c3ccccc23)cc1OC (stereo not drawn)  -40.7%
88. CCc1ccc(OCC(O)CN2CCC(CN3C(=O)c4cccc5cccc(c45)C3=O)CC2)cc1.Cl (stereo not drawn)  -41.1%
89. COc1cccc2sc(N(CCN(C)C)C(=O)/C=C/c3cccs3)nc12.Cl  -41.5%
90. CN(C)CCCN(C(=O)c1ccco1)c1nc2ccc(Br)cc2s1.Cl  -71.8%
